Reference: PubChem BioAssay (NCATS)
Inconclusive results, whose numbers are uncertain, are shown with a selection of clear calls. For part of these data: No potency is given beside an inconclusive call; the fits are too rough. Calls of active or inactive are those of the source. The call rests on the fitted dose curve; in most records, active means well fitted curve in the direction sought with a large enough effect; inconclusive means small, poorly fitted or top-dose-only effect, or another doubt; inactive means no such curve, though single readings can be large; an effect the other way counts as inactive or inconclusive. Where a SMILES comes first, the peptide text is derived from it. [ ]: non-standard residue; d: D form. The star is where a group is joined. Sta = CC(C)C[C@H](N)[C@@H](O)CC(=O)O; Isovaleryl = CC(C)CC(=O)*

Tests used:
[1] = qHTS of pediatric cancer cell lines to identify multiple opportunities for drug repurposing: Primary screen for Rh30 cells (AID 1347107); further: nearly all actives have a fitted effect of over 75% in size
Summary of the method: (§1)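 Cells (500-1,000/well) rested 5 h, then received compounds for 48 h; metabolically active cells were measured by CellTiter-Glo luminescence. Final concentrations spanned up to 46 µM (MIPE, 11-point) or 0.59 nM-46 µM (NPC, 8-point) in primary screens, 11-point in follow-ups.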

[2] = qHTS of pediatric cancer cell lines to identify multiple opportunities for drug repurposing: Primary screen for Rh41 cells (AID 1347108); further: nearly all actives have a fitted effect of over 70% in size;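 on activity change, negative = cytotoxic: luminescence drop marks cytotoxic hits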
Summary of the method: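 Phenotypic viability qHTS, 48 h compound exposure, CellTiter-Glo luminescence read-out; multi-concentration dosing so that potency and efficacy derive directly from the primary screen's curves.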

[3] = qHTS of pediatric cancer cell lines to identify multiple opportunities for drug repurposing: Confirmatory screen for A673 cells (AID 1347110);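 further: cells exposed to compound for 48 h before the viability read; nearly all actives have a fitted effect of over 65% in size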
Summary of the method: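 Concentration-response curves came straight from titrations: 11 points (0.78 nM to 46 µM) for MIPE and several concentrations (0.59 nM to 46 µM) for NPC in primary, 11 points in follow-up. Readout: ATP luminescence at 48 h.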

[4] = qHTS of pediatric cancer cell lines to identify multiple opportunities for drug repurposing: Confirmatory screen for BT-12 cells (AID 1347112); further: nearly all actives have a fitted effect of over 55% in size
Summary of the method: as §1

[5] = qHTS of pediatric cancer cell lines to identify multiple opportunities for drug repurposing: Confirmatory screen for LAN-5 cells (AID 1347113); further: nearly all actives have a fitted effect of over 65% in size
Summary of the method: as §1

[6] = qHTS of pediatric cancer cell lines to identify multiple opportunities for drug repurposing: Confirmatory screen for DAOY cells (AID 1347114); further: nearly all actives have a fitted effect of over 65% in size
Summary of the method: (§2)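 Viability measured as metabolically active cells via CellTiter-Glo luminescence following 48 hours of compound exposure, 11-point dilutions in confirmatory testing. 500-1,000 cells/well plated 5 hours before dosing; controls were DMSO and 2.3 µM bortezomib.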

[7] = qHTS of pediatric cancer cell lines to identify multiple opportunities for drug repurposing: Confirmatory screen for TC32 cells (AID 1347118); conditions: TC32 Ewing sarcoma cells viability qHTS; series mostly up to 45.9 µM;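 further: cells exposed to compound for 48 h before the read; nearly all actives have a fitted effect of over 65% in size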
Summary of the method: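 Luminescent ATP read-out (CellTiter-Glo) of metabolically active TC32 cells after 48 h exposure. Concentration-response curves came from 11-point (MIPE, 0.78 nM–46 µM) or 8-point (NPC, 0.59 nM–46 µM) primary titrations; follow-up used 11 points.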

[8] = qHTS of pediatric cancer cell lines to identify multiple opportunities for drug repurposing: Confirmatory screen for U-2 OS cells (AID 1347122); further: nearly all actives have a fitted effect of over 65% in size
Summary of the method: as §1

[9] = qHTS of pediatric cancer cell lines to identify multiple opportunities for drug repurposing: Confirmatory screen for Rh41 cells (AID 1347123); further: nearly all actives have a fitted effect of over 60% in size
Summary of the method: as §1

[10] = qHTS of pediatric cancer cell lines to identify multiple opportunities for drug repurposing: Confirmatory screen for RD cells (AID 1347124)
Summary of the method: as §1

[11] = qHTS of pediatric cancer cell lines to identify multiple opportunities for drug repurposing: Confirmatory screen for Rh18 cells (AID 1347125); conditions: Rh18 rhabdomyosarcoma cells, viability; activity change, negative = cytotoxic: at 45.9 µM (top of the series); further: nearly all actives have a fitted effect of over 55% in size
Summary of the method: as §1

[12] = qHTS of pediatric cancer cell lines to identify multiple opportunities for drug repurposing: Confirmatory screen for SK-N-MC cells (AID 1347111);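 further: cells exposed to compound for 48 h before the readout; nearly all actives have a fitted effect of over 70% in size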
Summary of the method: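 Seed 500-1,000 cells/well; rest 5 h at 37 degrees C. Pin-transfer compounds, 11-point titration. Incubate 48 h. Add CellTiter-Glo, 15 min RT, read luminescence.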

[13] = qHTS of pediatric cancer cell lines to identify multiple opportunities for drug repurposing: Confirmatory screen for NB-EBc1 cells (AID 1347115);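 further: cells exposed to compound for 48 h before the viability read; nearly all actives have a fitted effect of over 45% in size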
Summary of the method: as §1

[14] = qHTS of pediatric cancer cell lines to identify multiple opportunities for drug repurposing: Confirmatory screen for MG 63 (6-TG R) cells (AID 1347119); further: nearly all actives have a fitted effect of over 55% in size
Summary of the method: as §1

[15] = qHTS of pediatric cancer cell lines to identify multiple opportunities for drug repurposing: Confirmatory screen for control Hh wild type fibroblast cells (AID 1347121); further: nearly all actives have a fitted effect of over 70% in size
Summary of the method: as §1

[16] = qHTS of pediatric cancer cell lines to identify multiple opportunities for drug repurposing: Confirmatory screen for SJ-GBM2 cells (AID 1347116); further: nearly all actives have a fitted effect of over 60% in size
Summary of the method: as §2
Potency means the concentration at half of the fitted maximal effect; tags describe the fitted curve by direction and shape.

CCCC1OC2C[C@@H]3[C@H]4CCC5=CC(=O)C=C[C@]5(C)[C@H]4C(O)C[C@]3(C)[C@]2(C(=O)CO)O1 (some centres not stated)
Potency [1]: inconclusive [cytotoxic, partial curve, poor fit] | Potency [2]: inconclusive [cytotoxic, partial curve] | Potency [3]: inactive | Potency [4]: inactive | Potency [5]: inconclusive [rising, full curve] | Potency [6]: inconclusive [cytotoxic, partial curve, poor fit] | Potency [7]: inconclusive [cytotoxic, single point] | Potency [8]: inconclusive [cytotoxic, full curve, poor fit] | Potency [9]: inconclusive [cytotoxic, full curve, poor fit] | Potency [10]: inconclusive [cytotoxic, full curve, poor fit] | Potency [11]: inconclusive [cytotoxic, partial curve, poor fit]

CS(=O)(=O)OCCCCOS(C)(=O)=O
Potency [1]: inactive | Potency [12]: inconclusive [cytotoxic, full curve, poor fit] | Potency [4]: inactive | Potency [5]: inconclusive [rising, full curve, poor fit] | Potency [13]: inactive | Potency [7]: inconclusive [cytotoxic, full curve, poor fit] | Potency [14]: inactive | Potency [15]: inactive | Potency [9]: inactive

CS(=O)(=O)N1CCN(Cc2cc3nc(-c4cccc5[nH]ncc45)nc(N4CCOCC4)c3s2)CC1
Potency [1]: inconclusive [cytotoxic, partial curve] | Potency [3]: active: 3.39 µM | Potency [4]: inconclusive [cytotoxic, full curve] | Potency [16]: active: 21.4 µM | Potency [14]: inconclusive [cytotoxic, full curve] | Potency [15]: inconclusive [cytotoxic, partial curve] | Potency [8]: inconclusive [cytotoxic, full curve] | Potency [10]: inconclusive [cytotoxic, full curve]

CCOC(=O)C1=C[C@]2(CC)CCCN3CCc4c(n1c1ccccc41)[C@@H]32
Potency [2]: inconclusive [cytotoxic, single point]

Nc1cc(C(Cl)=C(Cl)Cl)c(S(N)(=O)=O)cc1S(N)(=O)=O
Potency [2]: inactive

NC12CC3CC(CC(C3)C1)C2
Potency [1]: inactive | Potency [2]: inconclusive [cytotoxic, partial curve, poor fit] | Potency [3]: inactive | Potency [12]: inactive | Potency [4]: inactive | Potency [5]: inactive | Potency [13]: inconclusive [cytotoxic, single point] | Potency [7]: inactive | Potency [14]: inconclusive [rising, full curve] | Potency [9]: inactive

CCC(C)N(C)C(=O)c1cc2ccccc2c(-c2ccccc2Cl)n1 (configuration not stated)
Potency [2]: inconclusive [cytotoxic, partial curve]

Cc1cnc(C(=O)O)c[n+]1[O-]
Potency [2]: inconclusive [cytotoxic, partial curve, poor fit]

CC1CC2C3CCC4=CC(=O)C=C[C@]4(C)[C@@]3(F)[C@@H](O)C[C@]2(C)[C@@]1(O)C(=O)CO (some centres not stated)
Potency [1]: inconclusive [cytotoxic, partial curve, poor fit] | Potency [2]: inconclusive [cytotoxic, partial curve, poor fit] | Potency [12]: inactive | Potency [5]: inactive | Potency [16]: inactive | Potency [7]: inactive | Potency [8]: inactive | Potency [9]: inactive

COc1ccc(-c2nc3ccc(C4=NNC(=O)CC4C)cc3[nH]2)cc1 (configuration not stated)
Potency [2]: inconclusive [cytotoxic, single point]

Cc1ncc([N+](=O)[O-])n1CCO
Potency [2]: inactive

CC(C)(Cc1ccc2ccccc2c1)NC[C@@H](O)COc1cccc(Cl)c1C#N
Potency [2]: inconclusive [cytotoxic, partial curve]

CC(C)CC(=O)N[C@H](C(=O)N[C@H](C(=O)N[C@@H](CC(C)C)[C@@H](O)CC(=O)N[C@@H](C)C(=O)N[C@@H](CC(C)C)[C@@H](O)CC(=O)O)C(C)C)C(C)C (Isovaleryl-VV[Sta]A[Sta]-OH)
Potency [3]: active: 1.47 µM | Potency [4]: inconclusive [cytotoxic, full curve, poor fit] | Potency [5]: inconclusive [cytotoxic, partial curve] | Potency [14]: inconclusive [cytotoxic, full curve] | Potency [15]: inconclusive [cytotoxic, full curve, poor fit] | Potency [8]: inconclusive [cytotoxic, single point] | Potency [9]: inconclusive [cytotoxic, partial curve] | Potency [10]: inconclusive [cytotoxic, full curve] | Potency [11]: inconclusive [cytotoxic, full curve]

COc1ccc(Cc2ccc(NC(N)=O)cc2)cc1-c1cccc(Cl)c1
Potency [2]: inconclusive [cytotoxic, partial curve, poor fit]

CCOC(=O)C1=C(N)Oc2ccc(Br)cc2C1C(C#N)C(=O)OCC (configuration not stated)
Potency [2]: inconclusive [cytotoxic, partial curve]

CCC[C@H](N[C@@H](C)C(=O)N1[C@@H]2CCCC[C@H]2C[C@H]1C(=O)O)C(=O)OCC
Potency [3]: inconclusive [cytotoxic, single point] | Potency [12]: inactive | Potency [4]: inactive | Potency [5]: inactive | Potency [13]: inactive | Potency [7]: inactive | Potency [15]: inactive | Potency [11]: inconclusive
